MIC of invasive clinical C. tropicalis isolates, CLSI broth microdilution (fluconazole 0.12-256 mg/L, up to 1,024 for the azole-resistant cluster and its neighbour group; other ranges not stated); higher = less susceptible. Call: susceptible or wild type [S] / resistant or non-wild type [R] by CLSI breakpoints or cut-offs; intermediate and dose-dependent carry no call. '<=' and '>=' at the end values are inferred; the source marks only some of them. Isolates are numbered anew.
compound: CCC(C)n1ncn(-c2ccc(N3CCN(c4ccc(OCC5COC(Cn6cncn6)(c6ccc(Cl)cc6Cl)O5)cc4)CC3)cc2)c1=O [itraconazole]; assay: CLSI broth microdilution.

Question: Which MIC does the source give for “Candida tropicalis isolate 424 (ERG11 copies: 2, Erg11p: no key change)” here?
Answer: 0.12 mg/L [S]

Question: “Candida tropicalis isolate 192 (ERG11 copies: 2, Erg11p: no key change)” was tested. Which MIC did it give?
Answer: 0.25 mg/L [S]

Question: How did the MIC turn out when “Candida tropicalis isolate 212 (ERG11 copies: 2, Erg11p: no key change)” was run?
Answer: 0.5 mg/L [S]

Question: How did the MIC turn out when “Candida tropicalis isolate 98 (ERG11 copies: 2, Erg11p: no key change)” was run?
Answer: 0.25 mg/L [S]

Question: With “Candida tropicalis isolate 337 (ERG11 copies: 2, Erg11p: no key change)” as the test system, how does the MIC read?
Answer: 0.25 mg/L [S]

Question: With “Candida tropicalis isolate 3 (ERG11 copies: 7, Erg11p: Y132F, S154F (heterozygous))” as the test system, how does the MIC read?
Answer: 1 mg/L [R]

Question: With “Candida tropicalis isolate 381 (ERG11 copies: 7, Erg11p: Y132F, S154F (heterozygous))” as the test system, how does the MIC read?
Answer: 1 mg/L [R]

Question: With “Candida tropicalis isolate 97 (ERG11 copies: 2, Erg11p: no key change)” as the test system, how does the MIC read?
Answer: 0.12 mg/L [S]

Question: For “Candida tropicalis isolate 433 (ERG11 copies: 2, Erg11p: no key change)”, which MIC is on record?
Answer: 0.25 mg/L [S]

Question: “Candida tropicalis isolate 135 (ERG11 copies: 2, Erg11p: no key change)” was tested. Which MIC did it give?
Answer: 0.25 mg/L [S]

Question: With “Candida tropicalis isolate 151 (ERG11 copies: 2, Erg11p: no key change)” as the test system, how does the MIC read?
Answer: 0.12 mg/L [S]

Question: Which MIC does the source give for “Candida tropicalis isolate 86 (ERG11 copies: 2, Erg11p: no key change)” here?
Answer: 0.12 mg/L [S]

Question: Which MIC does the source give for “Candida tropicalis isolate 371 (ERG11 copies: 2, Erg11p: no key change)” here?
Answer: 0.12 mg/L [S]

Question: How did the MIC turn out when “Candida tropicalis isolate 333 (ERG11 copies: 2, Erg11p: no key change)” was run?
Answer: 0.12 mg/L [S]

Question: For “Candida tropicalis isolate 218 (ERG11 copies: 2, Erg11p: no key change)”, which MIC is on record?
Answer: 0.5 mg/L [S]

Question: For “Candida tropicalis isolate 448 (ERG11 copies: 7, Erg11p: Y132F, S154F (heterozygous))”, which MIC is on record?
Answer: 2 mg/L [R]

Question: For “Candida tropicalis isolate 339 (ERG11 copies: 3, Erg11p: Y132F, S154F (heterozygous))”, which MIC is on record?
Answer: 1 mg/L [R]

Question: With “Candida tropicalis isolate 177 (ERG11 copies: 2, Erg11p: no key change)” as the test system, how does the MIC read?
Answer: 0.12 mg/L [S]

Question: “Candida tropicalis isolate 53 (ERG11 copies: 2, Erg11p: no key change)” was tested. Which MIC did it give?
Answer: 0.12 mg/L [S]

Question: “Candida tropicalis isolate 335 (ERG11 copies: 2, Erg11p: no key change)” was tested. Which MIC did it give?
Answer: 0.06 mg/L [S]

Question: For “Candida tropicalis isolate 428 (ERG11 copies: 2, Erg11p: Y257H (homozygous))”, which MIC is on record?
Answer: 0.5 mg/L [S]

Question: For “Candida tropicalis isolate 176 (ERG11 copies: 2, Erg11p: no key change)”, which MIC is on record?
Answer: 0.12 mg/L [S]

Question: For “Candida tropicalis isolate 292 (ERG11 copies: 2, Erg11p: no key change)”, which MIC is on record?
Answer: 0.06 mg/L [S]

Question: How did the MIC turn out when “Candida tropicalis isolate 432 (ERG11 copies: 2, Erg11p: no key change)” was run?
Answer: 0.12 mg/L [S]

Question: “Candida tropicalis isolate 186 (ERG11 copies: 2, Erg11p: no key change)” was tested. Which MIC did it give?
Answer: 0.03 mg/L [S]

Question: How did the MIC turn out when “Candida tropicalis isolate 414 (ERG11 copies: 2, Erg11p: no key change)” was run?
Answer: 0.25 mg/L [S]

Question: Which MIC does the source give for “Candida tropicalis isolate 323 (ERG11 copies: 2, Erg11p: no key change)” here?
Answer: 0.25 mg/L [S]

Question: With “Candida tropicalis isolate 9 (ERG11 copies: 2, Erg11p: no key change)” as the test system, how does the MIC read?
Answer: 0.12 mg/L [S]

Question: How did the MIC turn out when “Candida tropicalis isolate 172 (ERG11 copies: 2, Erg11p: no key change)” was run?
Answer: 0.5 mg/L [S]

Question: With “Candida tropicalis isolate 61 (ERG11 copies: 2, Erg11p: no key change)” as the test system, how does the MIC read?
Answer: 0.12 mg/L [S]

Question: For “Candida tropicalis isolate 343 (ERG11 copies: 2, Erg11p: no key change)”, which MIC is on record?
Answer: 0.25 mg/L [S]

Question: For “Candida tropicalis isolate 423 (ERG11 copies: 8, Erg11p: Y132F, S154F (heterozygous))”, which MIC is on record?
Answer: 0.5 mg/L [S]

Question: “Candida tropicalis isolate 108 (ERG11 copies: 2, Erg11p: Y132F, S154F (heterozygous))” was tested. Which MIC did it give?
Answer: 0.25 mg/L [S]

Question: For “Candida tropicalis isolate 253 (ERG11 copies: 2, Erg11p: no key change)”, which MIC is on record?
Answer: ≥ 16 mg/L [R]

Question: How did the MIC turn out when “Candida tropicalis isolate 219 (ERG11 copies: 2, Erg11p: no key change)” was run?
Answer: 0.12 mg/L [S]

Question: Which MIC does the source give for “Candida tropicalis isolate 375 (ERG11 copies: 2, Erg11p: no key change)” here?
Answer: 0.06 mg/L [S]

compound: CCCCCOc1ccc(-c2cc(-c3ccc(C(=O)N[C@H]4C[C@@H](O)[C@@H](O)NC(=O)[C@@H]5[C@@H](O)[C@@H](C)CN5C(=O)[C@H]([C@H](O)CC(N)=O)NC(=O)[C@H]([C@H](O)[C@@H](O)c5ccc(O)c(OS(=O)(=O)O)c5)NC(=O)[C@@H]5C[C@@H](O)CN5C(=O)[C@H]([C@@H](C)O)NC4=O)cc3)no2)cc1 [micafungin]; assay: CLSI broth microdilution.

Question: With “Candida tropicalis isolate 424 (ERG11 copies: 2, Erg11p: no key change)” as the test system, how does the MIC read?
Answer: 0.015 mg/L [S]

Question: With “Candida tropicalis isolate 192 (ERG11 copies: 2, Erg11p: no key change)” as the test system, how does the MIC read?
Answer: 0.015 mg/L [S]

Question: How did the MIC turn out when “Candida tropicalis isolate 212 (ERG11 copies: 2, Erg11p: no key change)” was run?
Answer: 0.015 mg/L [S]

Question: With “Candida tropicalis isolate 98 (ERG11 copies: 2, Erg11p: no key change)” as the test system, how does the MIC read?
Answer: 0.03 mg/L [S]
